Measured values published in PubChem BioAssay (NCI).
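Results reflect a 48-hour exposure of cells in 96-well plates to compound at five concentrations. GI50 = concentration required for 50% inhibition of growth. TGI: concentration producing complete growth inhibition.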 Active and inactive are the calls of the source.

Tests used:
[1] = system: CCRF-CEM leukemia; experiment: inhibition of tumour cell growth, NCI panel, 48 h
[2] = system: SR leukemia; experiment: inhibition of tumour cell growth, NCI panel, 48 h

`CCOC(=O)c1ccc(N/N=C/c2cn(-c3ccc(S(N)(=O)=O)cc3)nc2-c2ccc(OC)cc2)cc1` was tested, and the GI50 [1] was “inactive”, the TGI [1] was 11.7 µM and the GI50 [2] was “inactive”. It also gave a TGI [2] of 6.63 µM.
